Measurements from PubChem BioAssay (NCATS).
Inconclusive results, whose numbers are uncertain, are shown with a selection of clear calls. A call without a number means that no potency is given here. Potencies of inconclusive entries are doubtful fits and often do not repeat. The source made the active and inactive calls. Calls follow the shape of the dose curve; as a rule, active = well fitted inhibition curve with a large enough effect; inconclusive = small, poorly fitted or top-dose-only effect; inactive = no such curve, though single readings can be large or run the other way.

Target: Retinaldehyde dehydrogenase 3 (Homo sapiens) (UniProt P47895)
Assay: qHTS for Inhibitors of the Aldehyde Dehydrogenase Family (ALDH1A3) Primary screen (AID 2061315)
Settings: ALDH inhibition qHTS; series mostly up to 56 µM
Potency is read from the fitted curve at half-maximal effect; tags tell the direction and shape of the fitted curve.

| SMILES | Potency |
| --- | --- |
| COc1cc(C)c(C(=O)Oc2cc(C)c(C(=O)Oc3cc(C)c(C(=O)NC(C)C(=O)O)c(O)c3)c(O[C@@H]3O[C@H](CO)[C@@H](O)[C@H](O)[C@H]3OC(C)=O)c2)c(OC)c1 (stereo partly specified) | inactive |
| O=C(NC1CCCc2c1cnn2-c1ccc(F)cc1F)c1ccccc1 (stereo unspecified) | inactive |
| O=C1c2ccccc2C(=O)N1c1ccc(O)cc1 | inactive |
| COc1cccc2cc3c(c(O[C@@H]4O[C@H](CO[C@@H]5O[C@H](CO)[C@@H](O)[C@H](O)[C@H]5O)[C@@H](O)[C@H](O)[C@H]4O)c12)C(C)OC3=O (stereo partly specified) | inconclusive: 12.6 µM [inhibitor, partial curve, poor fit] |
| O=C(/C=C/c1ccccc1O)O[C@@H]1O[C@H](CO)[C@@H](O)[C@H](O)[C@H]1O | inconclusive: 10 µM [inhibitor, partial curve, poor fit] |
| O=S(=O)(c1ccccc1)N1CCN(S(=O)(=O)c2ccc3c(c2)OCCO3)CC1 | inactive |
| CC(=O)c1ccc(N2CCN(C(=O)c3ccc4c(c3)CCC(=O)N4)CC2)cc1 | inconclusive: 11.2 µM [inhibitor, partial curve, poor fit] |
| Cc1c(P(=S)(c2ccccc2)c2ccccc2)c2ccccc2n1C(=O)NCc1ccc(F)cc1 | inactive |
| Cn1ccc2cc(-c3ccc4ncnc(NCc5cccs5)c4c3)ccc21 | inactive |
| Cc1cc2c(s1)c1cnn(Cc3ccc(F)c(F)c3)c(=O)c1n2C | inactive |
| O=C(Nc1cncc(-c2ccncc2)c1)c1cccs1 | inconclusive: 10 µM [inhibitor, partial curve, poor fit] |
| CC1(C)CC[C@]2(CO[C@@H]3O[C@H](CO)[C@@H](O)[C@H](O)[C@H]3O)[C@@H](O)C[C@]3(C)C(=CCC4[C@@]5(C)CC[C@H](O[C@@H]6O[C@H](CO[C@@H]7O[C@H](CO[C@@H]8OC[C@@H](O)[C@H](O)[C@H]8O)[C@@H](O)[C@H](O)[C@H]7O)[C@@H](O)[C@H](O)[C@H]6O)C(C)(C)C5CC[C@]43C)[C@@H]2C1 (stereo partly specified) | inconclusive: 3.98 µM [inhibitor, partial curve, poor fit] |
| Cc1ccnc(NC(=S)N2CCC(c3cccc(C(F)(F)F)c3)CC2)c1 | inconclusive: 3.16 µM [inhibitor, partial curve, poor fit] |
| CC1(C)CC[C@]2(C(=O)O)CC[C@]3(C)C(=CCC4[C@@]5(C)CC[C@H](O[C@@H]6O[C@H](C(=O)O)[C@@H](O)[C@H](O)[C@H]6O)C(C)(CO)C5CC[C@]43C)C2C1 (stereo partly specified) | inactive |
| Cc1ccc(-c2ccc(=O)n(CC(=O)NCCc3ccncc3)n2)cc1 | inconclusive: 10 µM [inhibitor, partial curve, poor fit] |
| O=C(Cc1ccc2ccccc2c1)Nc1nnc(-c2ccncc2)s1 | inactive |
| CC(c1c[nH]c2ccccc12)C(O)C(=O)O (stereo unspecified) | inactive |
| O=C1CCCC2=C1C(c1[nH]ncc1Br)N=C(Nc1nc3ccccc3o1)N2 (stereo unspecified) | inactive |
| C[C@@H](CC[C@@H]1[C@@]2(C)CCCC(C)(C)C2CC[C@@]1(C)O)CC(=O)O (stereo partly specified) | inactive |
| CCCn1c(C)nc2c(NCCN3CCOCC3)nc(C)nc21 | inactive |
| C[C@@H](OC(=O)/C=C/c1ccc(O)cc1)C1=C[C@]2(C=C[C@@H]3C(C(=O)O)=CO[C@@H](O[C@@H]4O[C@H](CO[C@@H]5O[C@H](CO)[C@@H](O)[C@H](O)[C@H]5O)[C@@H](O)[C@H](O)[C@H]4O)[C@@H]32)OC1=O | inconclusive: 3.55 µM [inhibitor, partial curve, poor fit] |
| Cc1c(-c2ccc3c(c2)OCO3)oc2ccc(C(O)C(C)O)cc12 (stereo unspecified) | inconclusive: 10 µM [inhibitor, single point] |
| NC(Cc1c[nH]c2ccc(O)cc12)C(=O)O (stereo unspecified) | inconclusive: 12.6 µM [inhibitor, partial curve] |
| NC(=O)C1CCN(c2nc(-c3cccc([N+](=O)[O-])c3)cs2)CC1 | inactive |
| COc1ccc(C2Nc3ccccc3C(=O)N2Cc2ccccc2)cc1OCc1ccc(NC(C)=O)cc1 (stereo unspecified) | inconclusive: 25.1 µM [inhibitor, partial curve, poor fit] |
| OC[C@H]1O[C@@H](OC/C=C/c2ccc(O)cc2)[C@H](O)[C@@H](O)[C@@H]1O | inconclusive: 15.8 µM [inhibitor, partial curve, poor fit] |
